From patent US8263340B2, “Constitutively active mutants of the prolactin receptor” (Institut National de la Sante et de la Recherche Medicale …, priority 2007, dated 2012)

B1: I146L: mutant human prolactin receptor wherein the Ile residue at position 146 is substituted by a Leu residue (protein)
chain: QLPPGKPEIFKCRSPNKETFTCWWRPGTDGGLPTNYSLTYHREGETLMHECPDYITGGPNSCHFGKQYTSMWRTYIMMVNATNQMGSSFSDELYVDVTYIVQPDPPLELAVEVKQPEDRKPYLWIKWSPPTLIDLKTGWFTLLYELRLKPEKAAEWEIHFAGQQTEFKILSLHPGQKYLVQVRCKPDHGYWSAWSPATFIQIPSDFTMNDTTVWISVAVLSAVICLIIVWAVALKGYSMVTCIFPPVPGPKIKGFDAHLLEKGKSEELLSALGCQDFPPTSDYEDLLVEYLEVDDSEDQHLMSVHSKEHPSQGMKPTYLDPDTDSGRGSCDSPSLLSEKCEEPQANPSTFYDPEVIEKPENPETTHTWDPQCISMEGKIPYFHAGGSKCSTWPLPQPSQHNPRSSYHNITDVCELAVGPAGAPATLLNEAGKDALKSSQTIKSREEGKATQQREVESFHSETDQDTPWLLPQEKTPFGSAKPLDYVEIHKVNKDGALSLLPKQRENSGKPKKPGTPENNKEYAKVSGVMDNNILVLVPDPHAKNVACFEESAKEAPPSLEQNQAEKALANFTATSSKCRLQLGGLDYLDPACFTHSFH
B2: De11-9-G129R-hPRL: pure PRLR antagonist, variant of human prolactin, which interferes with the mechanism of receptor activation by PRL (protein)
chain: RCQVTLRDLFDRAVVLSHYIHNLSSEMFSEFDKRYTHGRGFITKAINSCHTSSLATPEDKEQAQQMNQKDFLSLIVSILRSWNEPLYHLVTEVRGMQEAPEAILSKAVEIEEQTKRLLERMELIVSQVHPETKENEIYPVWSGLPSLQMADEESRLSAYYNLLHCLRRDSHKIDNYLKLLKCRIIHNNNC

What was measured:
[1] = system: mutant I146L; test: Effect of PRLR inhibitors on proliferation of Ba/F3 cells expressing mutant I146L; format: cell-based, murine; details: increasing inhibitor concentrations, no PRL, 3 days
Procedure: (§1) Cells were starved for 6 hours in 1% FCS RPMI medium with additives (no PRL), then distributed in 96 well-plates at a density of 5×10^4 cells/well in a final volume of 100 μL. One hundred μL, of [2×] hPRL (and/or antagonist) diluted in the same medium were added after starvation period. Cell survival/proliferation was estimated after 2-3 days of hormonal stimulation by adding 10-20 μL, of WST-1 tetrazolium salt, which is metabolized by living cells (BERNICHTEIN et al., Endocrine, 20, 177-190, 2003). Optical density at 450 nm (OD450) was measured after 1-3 hours of colorimetric reaction using an ELISA plate reader. The experiments were routinely performed at least three times in triplicate or quadruplicate.
Proliferation of stable Ba/F3 cell populations was evaluated in poor medium (1% FCS) in the presence of WT hPRL, or of the PRLR antagonist De11-9-G129R-hPRL, or of AG490, for 3 days. The results are illustrated in FIGS. 12 and 13.

[2] = system: hPRL; test: Binding affinity of WT and mutated PRLR for hPRL, [125I]-hPRL competition with Scatchard analysis, stably transfected HEK 293 cell homogenates; design: species or system human; details: stable HEK 293 clones, overnight at room temperature
Procedure: Binding affinities of mutated PRLR for hPRL were determined using cell homogenates of stably transfected HEK 293, following a procedure previously described (KINET et al., J Biol Chem, 274, 26033-26043, 1999). Briefly, recombinant hPRL, produced in bacteria E. coli using the pT7L expression vector, and purified as described previously (PARIS et al., Biotechnol Appl Biochem, 12, 436-449, 1990), was iodinated using the Iodogen method, and its specific activity was in the range of 4-5 μCi/μg. Binding assays were performed overnight at room temperature using 150-300 μg cell homogenate protein in the presence of 20,000-30,000 cpm [^125I]-hPRL and increasing concentrations of unlabeled hPRL (competitor). Scatchard analysis was performed to determine the binding affinity of mutated PRLR and the number of PRLR per cell in stable clones or populations.

[3] = system: LHRE-luciferase reporter (Stat5); test: LHRE-luciferase reporter assay in HEK 293 cells expressing WT or mutated hPRLR; format: cell-based, human
Excerpt: The human PRLR cDNA inserted into the pc/DNA3 eukaryotic vector (InVitrogen, Carlsbad, Calif.) has been generated as described previously (LOCHNAN et al, Mol Cell Endocrinol 114:91-99, 1995; GOFFIN et al, J Biol Chem 271:16573-16579, 1996). The PRLR-responsive LHRE-luciferase reporter gene carries the sequence encoding the firefly luciferase gene under the control of a 6-repeat sequence of the lactogenic hormone response element (LHRE) followed by the minimal thymidine kinase promoter (GOFFIN et al., J Biol Chem, 271, 16573-16579, 1996). LHRE is the DNA binding element of the signal transducer and activator of transcription Stat5, one of the signaling proteins activated by the PRLR once it is activated (WAKAO et al, EMBO J. 13, 2182-2191, 1994).
Cells were routinely cultured in DMEM medium supplemented with 10% FCS, 2 mM glutamine, 50 U/mL penicillin, 50 μg/mL streptomycin. […]
After trypsinization, cells were counted and aliquoted in 96-well plates at a density of 50,000 cells/100 μL/well. […] Luciferase activity (only firefly luciferase for stable clones, and both firefly and renilla luciferases for transient transfections) for each experimental condition was counted in 10-20 μL of cell lysates for 10 seconds using a luminometer (Lumat LB 9501, Berthold, Nashua, N.H.). […]

[4] = system: PRLR phosphorylation; test: PRLR tyrosine phosphorylation by immunoprecipitation and western blot in transfected HEK 293 cells; format: cell-based, human
Procedure: Receptor phosphorylation on tyrosine residues is the first step of PRLR activation.
Transient or stable transfected cells were starved overnight in FCS-free medium before hormonal stimulation. The next day, cells were stimulated (5-30 min at 37° C.) using various concentrations of WT hPRL as indicated. At the end of the stimulation, cells were washed twice with ice-cold saline buffer and cell pellets were kept frozen until used. Cells were solubilized in 0.5-1 ml lysis buffer (30 min under gentle rotation at 4° C.). Lysates were centrifuged for 10 min at 13,000×g, then supernatants were quantified for their protein content by Bradford assay and used for immunoprecipitation.
For immunoprecipitation studies, 0.5-1 mg of total lysate were incubated with anti-human PRLR (anti extracellular domain of the human PRLR, Zymed, clone 1A2B1), used at 1-5 μl/ml. After overnight rotation at 4° C., immune complexes were captured using 20 μl Protein A Sepharose slurry for 1 additional hour rotation at 4° C. Protein A complexes were precipitated by centrifugation, pellets were washed 3 times in lysis buffer and boiled in 15 μl reducing SDS sample buffer for 5 min at 95° C. Finally, immunoprecipitated samples were analysed using 7.5% SDS-PAGE. Electrophoretic transfer onto nitrocellulose membranes (Bio-Rad) was performed as described (LLOVERA et al., Oncogene, 19, 4695-4705, 2000). […]

[5] = system: Ba/F3 cells; test: Proliferation assay (WST-1) of Ba/F3 cells expressing WT PRLR or I146L or I76V mutant; format: cell-based, murine; details: 1% FCS
Procedure: Ba/F3 cells are a pro-B murine cell line dependent on IL-3 for growth. Cells were transfected by electroporation using 5-20 μg of plasmid encoding the WT or mutated human PRLR(CMV promoter), then the populations stably expressing the receptor was selected by several passages in G418-containing medium. Ba/F3-hPRLR cells were routinely maintained in RPMI 1640 medium supplemented with 10% heat-inactivated FCS, 2 mM glutamine, 50 U/mL penicillin, 50 μg/mL streptomycin, 700 μg/mL G-418 (for selection of stably transfected cells), and 10-100 ng/mL WT hPRL instead of IL-3 as the growth factor.
as §1

[6] = system: Ba/F3 cells; test: Cell cycle / apoptosis of transfected Ba/F3 stable populations by FACS (propidium iodine); format: cell-based, murine; details: absence of PRL, minimal medium, 30 h
Excerpt: The cell cycle of transfected Ba/F cells (stable populations) was studied by FACS analysis, using propidium iodine labelling as previously described (JEAY et al., Endocrinology 142:147-156, 2001). Cells were put in minimal medium, with or without PRL for the indicated time.

[7] = system: Stat5; test: Stat5 phosphorylation by immunoprecipitation and western blot in Ba/F3 populations; format: cell-based, murine; details: absence of PRL stimulation
Procedure: Stat5 is the main PRLR signalling mediator, and a known anti-apoptotic factor in Baf cells. Its phosphorylation was analyzed by immunoprecipitation and western blot, using the protocol described in Example 3 for the analysis of PRLR phosphorylation.
Immunoprecipitation was performed with anti-STAT5 antibodies (c17, SantaCruz). The membranes were incubated with anti-PY antibody (4G10, Upstate), and when required re-incubated with anti-STAT5 (c17, SantaCruz) antibodies.
The results are illustrated by FIG. 16: (−)=no PRL, (+)=0,5 μg/ml PRL.

Row | Molecule | inhibition of strong constitutive activity (proliferation) of mutant I146L [1] | Kd [2] [nM] | basal activity (unstimulated cells), luciferase ([3]; no PRL, compared to WT receptor) | fold stimulation induced by PRL ([3]; stable clones, PRL 1 μg/ml, 24 hours) [fold] | constitutive phosphorylation of PRLR ([4]; absence of PRL stimulation) | effect of PRL stimulation on PRLR phosphorylation ([4]; with PRL stimulation) | effect of PRL on proliferation ([5]; 10 or 100 ng/ml hPRL) | constitutive proliferation / survival ([5]; absence of PRL) | apoptosis [6] | phosphorylation of Stat5 [7]
1 | N#CC(=Cc1ccc(O)c(O)c1)C(=O)NCc1ccccc1 [AG490, N-Benzyl-3,4-dihydroxy-benzylidenecyanoacetamide, reference compound] | dose-dependent effect |  |  |  |  |  |  |  |  | 
2 | B1 |  | 0.38 | much higher | 4 | constitutively phosphorylated | no detectable effect | did not markedly influence | proliferation similar to that induced by PRL on cells expressing WT PRLR | never undergo apoptosis | strong phosphorylation
3 | B2 | dose-dependent effect |  |  |  |  |  |  |  |  | 
